This is an account of results in patent US20140082769A1 (VIB VZW, published 2014).

In this assay the target is biotin labeled peptide of CIpB ATPase of Staphylococcus epidermidis (b~[…]). The assay can be described thus: PepBlot on BL21 cell lysate.

B1: β-galactosidase (enzyme)
chain: not shown
notes: also called beta-Gal
As for B1, the binding result is “no binding”.
